Each structure is given as a SMILES string. Among all 150,000 compounds or so, about 540 (0.36%) showed an effect of 50% or more. The list shows a part of the results.

The test system of this assay is Plasmodium falciparum. Kind of assay: Primary screen in NF54 nanoGlo assay, in single point, at 2uM, 72h; a lower Z score goes with more inhibition. In kind it is functional, Erythrocyte. As to conditions: timepoint 72 hour.
In the case of `CCOCC(=O)NCCCn1ccnc1`, the “% Inhibition” value was -2% and the Z score stood at 0.47.

In the case of `O=C(NCC1(CO)CC1)NC1CC1C1CCCCC1` (stereo not given), the “% Inhibition” value is -14% and the Z score is listed as 2.17.

As for `C=CCN(CC(=O)N1CCC1)C1CCCC1`, the “% Inhibition” value was -31% and the Z score is listed as 3.61.

Consider `FCCOc1cccc(NCc2cccc3cn[nH]c23)c1`, for which the “% Inhibition” value is reported as -3% and the Z score was 0.48.

Consider `CCCc1nnc(N2C[C@H](CCC)[C@@H](C(=O)O)C2)s1`, for which the “% Inhibition” value was found to be 6% and the Z score is -1.2.

As to `CC1(C(=O)O)CN(C(=O)c2csc(C(C)(C)C)n2)C1`, the “% Inhibition” value is -9% and the Z score turned out to be 1.21.

With `C[C@@H](CC(N)=O)NCC1(c2c(F)cccc2F)CC1`, the “% Inhibition” value came out at 3% and the Z score was -0.5.

With `COc1ccccc1OCC(=O)Nc1ccc2c(c1)OCCCO2`, the “% Inhibition” value is reported as -18% and the Z score was found to be 2.89.

Regarding `CN(C)C(=O)CCNS(=O)(=O)c1ccc(Cl)cc1`, the “% Inhibition” value is recorded as -3% and the Z score was found to be 0.52.

Turning to `CCN(CC)Cc1nnc2sc(-c3ccc4ccccc4c3)nn12`, the “% Inhibition” value is listed as -6% and the Z score is 0.83.

`COc1nccc(N2CCO[C@H](c3ccc(F)cc3)C2)c1C#N`: the “% Inhibition” value is listed as -4% and the Z score stood at 0.84.

With `Cc1cc(OCc2ccc(C(=O)N(Cc3ccccc3)Cc3ccccc3)o2)ccc1Cl`, the “% Inhibition” value is -14% and the Z score stood at 1.84.

`CCN(Cc1nc(COC)no1)C(=O)c1ccc(-c2cnccc2N)cc1`: the “% Inhibition” value is on record as -3% and the Z score amounted to 0.38.

Take `COc1ccc2[nH]c(-c3nc(C)nn3CC(C)(C)O)cc2c1`: the “% Inhibition” value is reported as -15% and the Z score stood at 2.18.

As to `Cc1noc(C)c1C(=O)NC[C@H](O)c1ccc(-c2cccs2)s1`, the “% Inhibition” value is 5% and the Z score is recorded as -0.71.

In the case of `CCOCC(=O)N1CCC[C@H]1c1nn(CC2CCCCC2)c2c1COCC2`, the “% Inhibition” value is reported as -12% and the Z score came to 1.13.

Take `O=C(CCc1conc1-c1ccc(F)cc1)NC1CC1`: the “% Inhibition” value is -7% and the Z score is recorded as 0.94.

Consider `CC(C)Cc1ccc(-c2nccn2[C@@H]2C[C@@H](CO)N(C)C2)s1`, for which the “% Inhibition” value is reported as -7% and the Z score is listed as 1.

Regarding `CCC1(C)OC(=O)N2CCc3c(C)[nH]c4cccc(c34)C21C` (stereo not given), the “% Inhibition” value is on record as -13% and the Z score was 1.71.

With `Cc1nc(OC[C@H]2CCCOC2)sc1C`, the “% Inhibition” value was -8% and the Z score was 1.

Consider `COCCNC(=O)c1ccc(NCc2ccc(N(C)C)c(F)c2)nc1`, for which the “% Inhibition” value was found to be 0% and the Z score worked out at 0.04.

Turning to `Cc1nc(CN2CCOc3ccc(Cl)cc32)no1`, the “% Inhibition” value came out at 1% and the Z score is given as -0.07.

Turning to `O=S(=O)(NCCc1ccsc1)C1CC1`, the “% Inhibition” value was -11% and the Z score came to 1.89.

Turning to `Cc1ccc(Cl)cc1N1CCN(C(=O)c2c(C)oc3ncn(C)c(=O)c23)CC1`, the “% Inhibition” value is -3% and the Z score came to 0.59.

As to `CCc1cnc(C)nc1-c1ccc(C(=O)NCCc2nc(N)cc(O)n2)cc1`, the “% Inhibition” value is 0% and the Z score was -0.02.
